# Source: PubChem BioAssay AID686979 (National Center for Advancing Translational Sciences (NCATS), 2013)
# Hit rate of the full screen: of about 420,000 compounds, about 50,000 (12%) were called active. The inconclusive results got no clear call from the source; some entries with a clear call stand among them for comparison. The call rests on the fitted dose curve; in most records, active means well fitted inhibition curve with a large enough effect; inconclusive means small, poorly fitted or top-dose-only effect; inactive means flat fitted curve, though single readings scatter. Potencies of inconclusive entries are left out as doubtful fits.
# Test: qHTS for Inhibitors of human tyrosyl-DNA phosphodiesterase 1 (TDP1): qHTS in cells in presence of CPT; further: nearly all actives have a fitted effect of over 55% in size
# Conditions: chicken DT40 Tdp1-/-;hTDP1 cells + 20 nM CPT, ATP luminescence, 48 h; activity change, negative = growth inhibition: at 46.2 µM (top of the series) unless noted
# Procedure, shortened: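 Chicken DT40 Tdp1-/- cells complemented with human TDP1, 400 cells/well, exposed to compounds plus 20 nM camptothecin for at least 48 h at 37 C; viability read as ATP content by CellTiter-Glo luminescence.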
# On the % scale 0 is the no-effect control and ±100 the full control effect; potency means the concentration at half of the fitted maximal effect; tags describe the fitted curve by direction and shape.
Compound,Potency,"activity change, negative = growth inhibition"
COc1cc(OC)c(/C=C2\SC(=O)N(CC(=O)Nc3ccccc3F)C2=O)c(OC)c1,"inconclusive [inhibitor, single point]",
C=CC[C@H](CC(=O)NCCO)C(=O)N[C@@H](COC(=O)[C@@H](CC=C)Cc1ccc(F)cc1)Cc1c[nH]c2ccccc12,active: 29.1 µM,
CC(=O)Nc1ccc2nc(SCCOc3cc(C)cc(C)c3)sc2c1,"inconclusive [inhibitor, single point]",
COc1ccc(CCN2C(=O)NC(NS(=O)(=O)c3ccc(NC(C)=O)cc3)(C(F)(F)F)C2=O)cc1OC (configuration not stated),inactive,
CCC1CCCCN1CCCNC(=O)c1cc2c(=O)oc3ccc(C)cc3c2s1 (configuration not stated),"inconclusive [inhibitor, single point]",
CCOc1ccc(C(=O)Nc2nc3ccccc3[nH]2)cc1OCC,active: 20.6 µM,
CC(C)CC1C(=O)N(Cc2cn(Cc3ccco3)nn2)CCS(=O)(=O)N1Cc1ccc(-c2ccc(F)nc2)cc1 (configuration not stated),"inconclusive [inhibitor, single point]",
O=C(CN1CCN(c2ccccc2O)CC1)NC(c1ccccc1)c1ccccc1,"inconclusive [inhibitor, single point]",
CC(C)CCN(C(=O)CCSc1ccc(F)cc1)c1c(N)n(Cc2ccccc2)c(=O)[nH]c1=O,"inconclusive [inhibitor, single point]",
CCS(=O)(=O)c1ccc2oc(Nc3ccc(C(C)(C)C)cc3)nc2c1,active: 16.4 µM,
CCN1C(=O)/C(=C/c2nc3ccccc3c(=O)n2-c2ccc(C)cc2)c2ccccc21,active: 23.1 µM,
CCc1ccc(-c2nn(CC(=O)NCc3ccccc3)c3c2cnc2ccc(F)cc23)cc1,inactive,
OCCCc1cn(CC2CCCCC2)nn1,inactive,
CN1CCN(c2ccc(S(=O)(=O)N3CCCCC3)cc2NC(=O)COc2cccc(Cl)c2)CC1,"inconclusive [inhibitor, single point]",
Cc1ccc(NC(=O)N2CCC(C(N)=O)CC2)cc1,inactive,
CCCCn1c(N)c(N(CC)C(=O)CCc2ccccc2)c(=O)[nH]c1=O,inactive,
CN(C)Cc1cc(C(C)(C)C)c(O)c(C(C)(C)C)c1,"inconclusive [inhibitor, single point]",
Cn1c(=N)n(CC(O)c2cccc3ccccc23)c2ccccc21 (configuration not stated),active: 14.6 µM,
COc1ccc(CNC(=O)CCN2C(=O)c3ccccc3C2=O)cc1,inactive,
Cn1ccsc1=NC(=O)c1cc(S(=O)(=O)N2CCOCC2)ccc1Cl,inactive,
COCCNC(=O)C(c1ccc(C)cc1)N(CCOC)C(=O)CCC(=O)Nc1ccccn1 (configuration not stated),inactive,
CC(=O)OC1CC2C(C)(C)C(=O)C=C[C@]2(C)C2CC[C@@]3(C)C(c4ccoc4)OC(=O)C4O[C@@]43[C@]12C (some centres not stated),"inconclusive [inhibitor, single point]",
CC1CCN(C(=O)CN2C(=O)NC(c3ccccc3)(c3ccccc3)C2=O)CC1,inactive,
COC(=O)c1ccc2nc(-c3ccco3)c(Cc3ccccc3)n2c1,active: 25.9 µM,

Compound,Potency,"activity change, negative = growth inhibition"
O=C(c1cnccn1)N1CCC2(CC1)CCN(C(c1ccccc1)c1ccccc1)CC2,inactive,
COc1cc(NC(=O)COCc2cc(-c3ccc4c(c3)OCO4)on2)cc(OC)c1,"inconclusive [inhibitor, single point]",
CC(=O)N1CCCc2cc(S(=O)(=O)N3CCCC(C(=O)Nc4cc(C)ccc4C)C3)ccc21 (configuration not stated),"inconclusive [inhibitor, single point]",
COC(=O)C(Cc1ccc(O)cc1)N1Cc2ccccc2C1=O (configuration not stated),inactive,
COC(CNC(=O)Cn1ncc2ccsc2c1=O)OC,inactive,
Cc1ccccc1C(=O)Nc1ccnn1C1CCN(Cc2ccc(CO)o2)CC1,inactive,
O=C(CN1CCCCC1)N1c2ccccc2Oc2ccccc21,"inconclusive [inhibitor, single point]",
Cc1ccccc1-c1noc(-c2ccc(N3CCOCC3)c([N+](=O)[O-])c2)n1,"inconclusive [inhibitor, single point]",
Cc1ccc(NC(=S)NC(=O)c2ccc(-c3ccc(Cl)cc3)o2)c(O)c1,active: 20.6 µM,
CNc1nc(-c2ccccc2)nc(-c2ccccc2)c1C#N,,inconclusive: -33.5% [inhibitor]
Cn1ncc2c(N3CCC(Cc4ccccc4)CC3)ncnc21,"inconclusive [inhibitor, partial curve]",
O=C(NCCOc1ccc(Cl)cc1)c1ccc2c(c1)OCCO2,inactive,
Cc1ccc(NC(=O)CNC(=O)c2ccc(OC(F)F)cc2)cc1S(=O)(=O)N1CCCCCC1,"inconclusive [inhibitor, single point]",
COc1cccc(C2=NOC(C(=O)Nc3cccc(C(C)=O)c3)C2)c1OC (configuration not stated),"inconclusive [inhibitor, single point]",
COc1cc(NS(=O)(=O)c2ccc(OC)c(C)c2C)c(OC)cc1Cl,active: 4.61 µM,
Nc1nc(Cl)cc(N2CCCC2)n1,inactive,
Cc1ccc(-n2c(=O)c3c(cnn3C)n(Cc3ccccc3F)c2=O)cc1,active: 18.4 µM,
O=C(C(=O)N1CCN(Cc2ccc3c(c2)OCO3)CC1)c1c[nH]c2ccccc12,"inconclusive [inhibitor, partial curve, poor fit]",
COc1ccc(OCc2nnc3n2N=C(c2ccc(C)cc2)CS3)cc1,"inconclusive [inhibitor, single point]",
COc1ccc2nc3cccc(OC)c3nc2c1,"inconclusive [inhibitor, single point]",
CSc1nnc(C)c(=O)n1COC(=O)COc1ccccc1C,"inconclusive [inhibitor, single point]",
COc1ccc(C(=O)Nc2ccccc2C(=O)N/N=C/c2ccncc2)cc1OC,active: 16.4 µM,
CCCCC(=O)N(C)c1c(CC)nc2c(OCC3CCCCC3)cccn12,"inconclusive [inhibitor, single point]",
C/C(=N/NC(=O)CSc1nc2ccccc2s1)c1ccncc1,"inconclusive [inhibitor, single point]",

Compound,Potency,"activity change, negative = growth inhibition"
COc1cc(/C=N/NC(=O)CCC(=O)Nc2ccc(C)cc2)ccc1O,inactive,
COc1cc(NC(=O)c2oc3c(c2C)-c2nn(Cc4cccc(Cl)c4)cc2CC3)cc(OC)c1,"inconclusive [inhibitor, single point]",
N[C@H]1CCN(O)C1=O,"inconclusive [inhibitor, single point]",
COc1cccc(/C(C)=N/Nc2ncc(Cl)cc2Cl)c1,"inconclusive [inhibitor, single point]",
Cc1ccc(Nc2nc(N)c([N+](=O)[O-])c(NCc3ccccc3)n2)cc1,inactive,
CCN(CC)C(=O)c1ccc(Nc2nnc(C)c3ccccc23)cc1,"inconclusive [inhibitor, single point]",
Cc1cc(Cl)c2oc(C(=O)N3CCC(O)(c4ccccc4)CC3)c(C)c2c1,inactive,
CC(C)C[C@@H](CN1CCCC1CN1C(=S)NC[C@@H]1Cc1ccc(O)cc1)N1C[C@H](Cc2ccccc2)N(CC2CCCCC2)C1=S (some centres not stated),"inconclusive [inhibitor, single point]",
NC(N)=NS(=O)(=O)c1ccc(NC(=S)NC(=O)Cc2ccc(Cl)cc2)cc1,inactive,
COc1ccc2[nH]cc(CCNc3ccnc(-c4ccc(N(C)C)cc4)n3)c2c1,active: 1.03 µM,
CCn1cc(S(=O)(=O)c2ccccc2)c(=O)c2cc(F)c(N3CCN(c4ccccc4)CC3)cc21,"inconclusive [inhibitor, single point]",
COc1cc(/C=C2/SC(=O)NC2=O)ccc1OCc1ccccc1,inactive,
COc1ccc(CNC(=O)C2CCN(S(=O)(=O)N3CCC4(CC3)OCCO4)CC2)c(OC)c1,"inconclusive [inhibitor, full curve, poor fit]",
Cc1csc(N2CCN(c3cc4c(cc3Cl)nc(-c3ccncc3)n4CCCN3CCCC3)CC2)n1,"inconclusive [inhibitor, single point]",
S=C(NCc1ccncc1)Nc1ccc(Cl)cc1Cl,"inconclusive [inhibitor, partial curve]",
CCc1nn(CC(=O)Nc2ccc(N(CC)CC)cc2C)c(=O)c2cc3sccc3n12,"inconclusive [inhibitor, single point]",
CCN1CCN(c2oc(-c3ccccc3)nc2S(=O)(=O)c2ccc(C)cc2)CC1,"inconclusive [inhibitor, single point]",
CCO[C@@H]1OC(C(=O)NCc2ccccc2)=C[C@H](c2ccccc2)[C@H]1CCCO,"inconclusive [inhibitor, partial curve]",
Cc1cc(C)c2c(N)c(C(=O)NN)sc2n1,"inconclusive [inhibitor, single point]",
Cc1ccc(C)c(C(C)NC(=O)C2CCCC2)c1 (configuration not stated),inactive,
Cc1ccc(S(=O)(=O)CCC(=O)Nc2nnc(-c3ccco3)o2)cc1,"inconclusive [inhibitor, single point]",
Cc1cccc(C)c1NC(=O)C(NC=O)c1ccc(N(C)C)cc1 (configuration not stated),,inconclusive: -30% [inhibitor]
Cc1ccc(SCC2(O)CCN(C(=O)c3ccc(Cl)cc3)CC2)cc1,"inconclusive [inhibitor, single point]",
Cc1ccc(Cn2c(CN3CCC(C(=O)NCCc4ccccc4)CC3)cc3ccccc32)cc1,active: 23.1 µM,
